Reference: PubChem BioAssay (NCATS)
The list shows a part of the results. These are further read-outs of the screen, such as a control signal, another cell line or another target. No call is given for them. Compounds called inactive in the main read-out are mostly missing here. The note in brackets gives the kind of curve behind each potency; many fits are weak.

Assay: qHTS Assay for Lipid Storage Modulators (AID 1519)
Conditions: Drosophila S3 cells, BODIPY lipid droplet/cell ratio, laser cytometry, cells loaded with oleic acid
How it was run: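 Cells seeded at 5,000 per well were treated with compounds over a concentration series and loaded with oleic acid (400 uM, as added). Lipid droplet fluorescence (488 nm excitation, 500-530 nm channel) was read by laser-scanning cytometry and normalized to 20 uM Triacsin C.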

[1] = measured here: cell count channel max response
[2] = measured here: cell number channel AC50
[3] = measured here: lipid channel max response
[4] = measured here: lipid (BODIPY) channel AC50
Tags describe the fitted curve by direction and shape.

Row | Compound | max response [1] | AC50 [2] | max response [3] | AC50 [4]
1 | O=c1nc2ccccc2c2n1C[C@H](CN1CCN(c3ccccc3)CC1)N2 | 65.5% | 5.62 µM [rising, partial curve, poor fit] | 87.2% | –
2 | COc1cc(-c2ccc(N=Nc3ccc4c(S(=O)(=O)O)cc(S(=O)(=O)O)c(N)c4c3O)c(OC)c2)ccc1N=Nc1ccc2c(S(=O)(=O)O)cc(S(=O)(=O)O)c(N)c2c1O | 83.4% | – | 115% | 12.6 µM [rising, partial curve]
3 | O=C(c1cnccn1)N1CCC2(CC1)CN(Cc1ccccc1)C2 | 14.5% | 0.891 µM [rising, single point] | 17.5% | –
4 | COc1ccc(-c2nc3cnc(Oc4cccc(Cl)c4)nc3n(C[C@H]3CCCO3)c2=O)cc1 | 9.61% | – | -35.5% | 25.1 µM [falling, single point]
5 | O=C(c1ccncc1)N1CCC2(CC1)CN(c1ccc(-c3ccccc3)cc1)C2 | -21.7% | – | -33.7% | 39.8 µM [falling, single point]
6 | CC[C@H](C)[C@@H]1O[C@]2(CC[C@@H]1C)C[C@H]1C[C@H](CC=C(C)[C@@H](O[C@@H]3C[C@H](OC)[C@H](O[C@@H]4C[C@H](OC)[C@H](O)[C@H](C)O4)[C@H](C)O3)[C@@H](C)C=CC=C3CO[C@@H]4[C@@H](O)C(C)=C[C@@H](C(=O)O1)[C@]34O)O2 | -61.3% | 15.8 µM [falling, single point] | -86% | –
7 | COc1ncc2nc(-c3ccc(F)cc3)c(=O)n(Cc3ccc(F)cc3)c2n1 | 25.9% | – | 30% | 0.355 µM [rising, full curve, poor fit]
